About 530 (0.13%) of roughly 410,000 compounds were called active. The inconclusive results got no clear call from the source; some entries with a clear call stand among them for comparison. Calls come from the whole dose curve; as a rule, active = well fitted inhibition curve with a large enough effect; inconclusive = small, poorly fitted or top-dose-only effect, or another doubt; inactive = no such curve, though single readings can be large or run the other way. A potency beside an inconclusive call is a rough fit, not a confirmed value.
Assay: qHTS of GLP-1 Receptor Inverse Agonists: Cytotox Screen
Conditions: HEK293 cAMP-luciferase reporter cells, luminescence, 24 h; activity change, negative = inhibition: at 38.3 µM (top of the series) unless noted
Method in brief: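 Compound-treated cells are incubated 24 hr at 37 deg C under 5% CO2 after a 12 hour attachment period, then luciferase detection reagent is added and luminescence is measured following 12 min at room temperature; lowered signal indicates toxicity.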
% is set by controls: 0 for no effect and ±100 for the full control effect; potency is the fitted concentration of half-maximal effect.

SMILES	Potency	activity change, negative = inhibition
COc1cccc(NC(=S)NC2CC(C)CC(C)(C)C2)c1 (stereo not given)	inconclusive: 12.6 µM [inhibitor, partial curve, poor fit]	
O=C(c1ccccc1)c1nn(-c2ccccc2)c2nnc(Cc3ccccc3)c(=O)n12	inconclusive: 15.8 µM [inhibitor, single point]	
CCCOc1ccc(/C=C/C(=O)Nc2sc(C)c(C)c2C(=O)OCC)cc1OC		inactive: 10.3%
Cc1ccc(C(NC(=O)C2CCCCC2)c2c(O)ccc3ccccc23)cc1 (stereo not given)	inconclusive: 10 µM [inhibitor, partial curve]	
CCOc1ncccc1C(=O)OCc1ccc(C(=O)OC)cc1	inconclusive: 12.6 µM [inhibitor, partial curve, poor fit]	
COC(=O)C1=CN(c2ccc(F)cc2)C(N)=C(C#N)C1c1cccc(F)c1 (stereo not given)	inconclusive: 11.2 µM [inhibitor, partial curve, poor fit]	
C#CC[N+](C)(C)CCCCCCCCCC	inconclusive: 8.91 µM [inhibitor, partial curve]	
NS(=O)(=O)c1ccc(CNC(=O)c2cc(-c3cccs3)nc3ccccc23)cc1	inconclusive: 12.6 µM [inhibitor, single point]	
CC(=O)Nc1ccc(-c2ccnc3c2CC(C)(C(=O)NCc2ccco2)O3)cc1 (stereo not given)	inconclusive: 5.01 µM [inhibitor, partial curve]	
CO/N=C(/CNC(=O)c1ccc(Cl)cc1Cl)c1ccc(Cl)cc1		inactive: 12.2%
C#CCn1cccc(C(=O)Nc2ccc(OC)cc2)c1=O		inactive: 2.32%
O=C(CCN1CCN(c2ccc(Cl)cc2)CC1)Nc1ccccc1F		inactive: -0.285%
COc1cccc(C(=O)NNc2c3ccccc3nc3ccccc23)c1		inconclusive: -62.5% [inhibitor]
COc1ccc(CCNC(=O)C(=O)NCC2OCCN2S(=O)(=O)c2ccccc2)cc1OC (stereo not given)	inconclusive: 2.24 µM [inhibitor, full curve]	
O=C(NCCCN1CCOCC1)c1cn(-c2ccccc2)nc1-c1ccc(Br)cc1	inconclusive: 28.2 µM [inhibitor, single point]	
Cc1ccc(S(=O)(=O)c2cn(Cc3cccc(F)c3)c3cc(N4CCCC4)c(F)cc3c2=O)cc1		inactive: 0.977%
Cc1ccc(-n2nc3c(N4CCC(C(=O)N5CCN(C)CC5)CC4)nnc(C)c3c2C)cc1	inconclusive: 14.1 µM [inhibitor, single point]	
CCOc1ccc(NC(=O)c2cc3sc(Cl)cc3n2CC)cc1		inactive: 7.63%
COc1ccccc1CNC(=O)CN1C(=O)NC2(CCC(C)CC2)C1=O (stereo not given)	inconclusive: 31.6 µM [inhibitor, single point]	
c1ccc2[nH]c(-c3cscn3)nc2c1		inactive: 6.33%
COC1C=CC=C(C)C(=O)NC2=CC(=O)C(N)=C(CC(C)CC(OC)C(O)C(C)C=C(C)C1OC(N)=O)C2=O (stereo not given)	inconclusive: 0.282 µM [inhibitor, full curve, poor fit]	
CS(=O)(=O)c1ccc(Cl)c(NC(=O)CN2CCN(C(=O)c3cccs3)CC2)c1	inconclusive: 10 µM [inhibitor, single point]	
CC(=Nc1ccc(C)cc1C)c1sc2ccccc2c1O		inactive: 59.4%

SMILES	Potency	activity change, negative = inhibition
CCC(C)Cn1cnc2c(SCc3ccccc3F)nc(N)nc21 (stereo not given)		inactive: -5.04%
COc1cc(/C=C2\NC(=S)N(C)C2=O)ccc1O	inconclusive: 11.2 µM [inhibitor, single point]	
O=S1(=O)c2ccc(Br)cc2N2CCC[C@H]2CN1Cc1ccccc1	inconclusive: 4.47 µM [inhibitor, partial curve, poor fit]	
COCC1CCN(C(=O)c2cc(COc3cccc4cnccc34)on2)CC1		inactive: 9.59%
Cc1ccc(NC(=O)c2ccc(NCCCN3CCOCC3)c([N+](=O)[O-])c2)cc1Cl	inconclusive: 28.2 µM [inhibitor, single point]	
CC(C)N1CCN(Cc2cccn2-c2ccccn2)CC1CCO (stereo not given)	inconclusive: 28.2 µM [inhibitor, partial curve, poor fit]	
Cc1ccc(S(=O)(=O)/N=C(/Nc2ccccc2C)c2ccccc2)cc1		inactive: 8%
Cc1cccc(-c2nc3nc(C)cc(NC(C)c4ccccc4)n3n2)c1 (stereo not given)		inactive: 1.33%
Cc1cccc(NC(=S)Nc2cccc(C)n2)n1	inconclusive: 3.16 µM [inhibitor, full curve, poor fit]	
COC(=O)c1ccc(/C=C/C(=O)c2ccc(OC)c(OC)c2)cc1	inconclusive: 12.6 µM [inhibitor, partial curve, poor fit]	
CCOc1cc(/C=C(/C#N)C(=O)Nc2ccc(O)cc2)cc(Br)c1O	inconclusive: 0.316 µM [inhibitor, full curve, poor fit]	
CCOc1ccc(NC(=S)NC(=O)/C=C/c2ccco2)cc1	inconclusive: 20 µM [inhibitor, single point]	
Cc1cc(C)n(-c2nc3ccccc3nc2N2CCN(C(=O)c3ccc(Cl)cc3)CC2)n1	inconclusive: 5.62 µM [inhibitor, full curve, poor fit]	
CCCCc1ccc(NC(=S)NCc2cccc(OC)c2)cc1	inconclusive: 14.1 µM [inhibitor, single point]	
COc1ccc(CCNC(=S)NC(=O)c2ccccc2)cc1C	inconclusive: 28.2 µM [inhibitor, single point]	
CCOC(=O)c1ccc(NC(=O)CC(=O)Nc2ccc3nc4n(c(=O)c3c2)CCCCC4)cc1		inactive: 3.43%
O=C(Nc1ccc([N+](=O)[O-])cc1)Nc1ccc(Cl)cc1F	inconclusive: 3.16 µM [inhibitor, partial curve]	
CCn1c(=O)c(C(=O)NCCN2CCCCC2)c(O)c2ccccc21	inconclusive: 20 µM [inhibitor, single point]	
O=c1c2[nH]c3ccccc3c2nc2n1CCS2		inactive: -3.09%
CCOc1ccc(C(=O)Nc2cc3c(cc2N2CCCC2)n(C)c(=O)c(=O)n3C)cc1OCC		inactive: -10.7%
COc1ccc(CSC2=NCCN2)cc1Cl	inconclusive: 11.2 µM [inhibitor, single point]	
COc1cccc(CNC(=O)COC(=O)c2cc([N+](=O)[O-])ccc2N2CCCC2)c1	inconclusive: 31.6 µM [inhibitor, single point]	

Reference: PubChem BioAssay AID624418 (National Center for Advancing Translational Sciences (NCATS), 2012)
